Source: publication PMC5787466, “Accelerated bottom-up drug design platform enables the discovery of novel stearoyl-CoA desaturase 1 inhibitors for cancer therapy” (Oncotarget, 2017)

Test system: 4 ccRCC cell lines
Test: High-throughput proliferative screen, single point
Conditions: 10μM; proliferative screen in ccRCC cell lines

For `O=C(c1ccc(OCc2ccccc2)nc1)N1C[C@@H]2CN(C(=O)c3ccccc3C(F)(F)F)C[C@H]2C1` [TC03.6], the “Single Pt Act (10μM)” value was “No”.

For `O=C(NC1CCN(C(=O)c2ccccc2C(F)(F)F)CC1)c1ccc(OCc2ccccc2)nc1` [TC03.14], the “Single Pt Act (10μM)” value was “No”.
